Experimental data: PubChem BioAssay AID1645882 (National Center for Advancing Translational Sciences (NCATS), 2021)
Out of some 16,000 compounds screened, about 120 (0.75%) were called active. Inconclusive results (about 4%) are left out. Calls come from the whole dose curve; as a rule, active = well fitted inhibition curve with a large enough effect; inconclusive = small, poorly fitted or top-dose-only effect; inactive = no such curve, though single readings can be large or run the other way. Some of the results follow.

Molecular target: Rap guanine nucleotide exchange factor 3 (Homo sapiens) (UniProt O95398)
Sequence of UniProt O95398 (O95398 whole entry, looked up): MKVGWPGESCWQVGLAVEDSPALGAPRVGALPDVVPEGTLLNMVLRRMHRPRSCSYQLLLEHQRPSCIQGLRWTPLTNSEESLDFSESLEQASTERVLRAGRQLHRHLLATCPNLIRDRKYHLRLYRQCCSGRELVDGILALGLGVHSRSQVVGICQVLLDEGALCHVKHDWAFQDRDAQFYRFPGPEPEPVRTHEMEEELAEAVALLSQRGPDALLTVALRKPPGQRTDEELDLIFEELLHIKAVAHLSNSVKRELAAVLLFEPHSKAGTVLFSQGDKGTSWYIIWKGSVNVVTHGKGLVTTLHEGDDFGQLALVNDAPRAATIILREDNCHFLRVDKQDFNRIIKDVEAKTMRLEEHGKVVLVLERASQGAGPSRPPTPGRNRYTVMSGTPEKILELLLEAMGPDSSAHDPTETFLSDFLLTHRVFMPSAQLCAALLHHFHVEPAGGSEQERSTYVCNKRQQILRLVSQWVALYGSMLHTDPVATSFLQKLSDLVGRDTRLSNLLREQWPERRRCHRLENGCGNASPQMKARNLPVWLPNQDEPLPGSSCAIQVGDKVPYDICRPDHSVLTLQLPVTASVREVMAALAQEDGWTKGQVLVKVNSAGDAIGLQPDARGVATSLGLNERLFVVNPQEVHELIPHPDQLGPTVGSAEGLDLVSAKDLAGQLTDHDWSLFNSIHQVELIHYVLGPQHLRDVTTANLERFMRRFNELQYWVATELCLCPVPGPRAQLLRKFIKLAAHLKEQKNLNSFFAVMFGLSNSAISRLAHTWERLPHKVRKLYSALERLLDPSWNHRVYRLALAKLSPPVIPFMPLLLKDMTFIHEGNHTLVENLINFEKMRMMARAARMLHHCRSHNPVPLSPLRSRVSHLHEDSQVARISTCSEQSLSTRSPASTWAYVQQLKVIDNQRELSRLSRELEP
Test: Validation qHTS for antagonist of cAMP-regulated guanine nucleotide exchange factor 3 (EPAC1); note: nearly all actives have a fitted effect of over 75% in size;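 for activity change, negative = inhibition: plate controls were DMSO for no effect and ATA control for full effect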
Conditions: EPAC1 Rap1B-BODIPY-GDP exchange, fluorescence; series mostly up to 150 µM; activity change, negative = inhibition: at the top concentration
Outline: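 EPAC1 (100 nM) mixed with 250 nM RAP1B-BODIPY-GDP and 50 uM GDP; compounds in concentration series, 5 min at room temperature. Fluorescence (ex 480/em 540 nm) read every 5 min for 30 min; normalized to ATA control and DMSO.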
Potency is the fitted concentration of half-maximal effect.

Activity change, negative = inhibition, inactive:
CCC1CN(CC(=O)NC(c2ccccn2)C(F)(F)F)Cc2cc(OC)ccc2O1 (stereo not drawn) 15.2%
CC(=O)O[C@@]1(C(C)=O)CCC2C3C=C(C)C4=CC(=O)CCC4(C)C3CCC21C (stereo partly drawn) -18.8%
CN1CCC(=C2c3ccccc3CCc3cccnc32)CC1 24%
Cc1nn(C)cc1CNc1nc(C)c(-c2ccn(CC3COc4ccccc4O3)n2)s1 (stereo not drawn) -4.44%
Nc1nc2ccc(OC(F)(F)F)cc2s1
COc1ccc2c(c1)c(CC(=O)O)c(C)n2C(=O)c1ccc(Cl)cc1
CCSc1nnc(C(C)NC(=O)c2ccc(OC)cc2)n1C (stereo not drawn) 6.61%
c1csc(CNc2ccnc(-c3ccc4c(c3)OCO4)n2)c1 -8.97%
COc1cccc(-c2ccnc(-n3ncc(C(=O)N(C)CCc4ccccn4)c3C)n2)c1 3.99%
OC1(c2cccnc2)CCN(Cc2ccc3c(c2)CN(Cc2ccc(Cl)cc2)CCO3)CC1 4.31%
COc1ccccc1C(=O)N[C@@H]1c2ccccc2C2(CCN(Cc3c(O)cccc3OC)CC2)[C@H]1O 22%
COc1ccc2[nH]cc(CCNc3cc(-c4ccccc4C)ncn3)c2c1 -9.05%
O=C(O)[C@@H](O)[C@H](O)[C@H](O)[C@@H](O)C(=O)O 34.9%
Cc1ncc(Cc2ccccc2)c(C2CCN(S(=O)(=O)C[C@]34CC[C@H](CC3=O)C4(C)C)CC2)n1 -15.6%
COc1ccc(C(=O)N2CCC3(CCN(CC(C)C)CC3)CC2)cc1 27.2%
O=C(c1ccco1)N1CCC2(CCCN(Cc3ccncc3)C2)CC1 11.4%
O=C(O)c1cc(=O)cc(C(=O)O)[nH]1 -7.38% [at 75.8 µM]
CC(=O)OC1C[C@@]2(C)C(c3ccoc3)OC(=O)C3O[C@@]32[C@]2(C)C(OC(C)=O)CC3C(C)(C)C(OC(C)=O)CC(OC(C)=O)[C@@]3(C)C12 (stereo partly drawn) -2.27%
COc1cc(-c2cc(C)c3c(OC)ccc(OC)c3n2)cc2c1OCCN(C(=O)C(C)c1n[nH]c(=O)c3ccccc13)C2 (stereo not drawn) -2.01%
COc1ccc2[nH]cc(CC(N)C(=O)O)c2c1 (stereo not drawn)
COC(=O)N1CCC2(CCCN(Cc3ccccc3OC)C2)CC1 27.3%
Cn1c2ccccc2c2cc(C(=O)N3CCOc4ccc(C(C)(O)CCn5cccn5)cc4C3)ccc21 (stereo not drawn) 13.2%
NCC(O)COc1cccc2ccccc12 (stereo not drawn) 18.8%
O=S(=O)(O)c1ccc(O)cc1 4.55%
Fc1ccc(Nc2ncncc2-c2ccoc2)cc1 12.6%
Cc1ccccc1CNc1ncnc2c1ncn2C1OC(CO)C(O)C1O (stereo not drawn) 12.9% [at 75.8 µM]
CC1(C)CCCC2(C)C3C(O)CC2(C)C(O)C31 (stereo not drawn) 13.6%

Potency, active:
Oc1cc(O)c2c(c1)O[C@H](c1ccc(O)c(O)c1)[C@H](O)C2 79.4 µM
